At least one read-out could not be matched to a standard name with certainty. Starred links: 1 amine or outer side, 2 acyl side, 3 side chain; linkers in the order of their positions; H or OH if unused. Positions of bridges follow the written chain, without caps; N, C: chain ends. Residues, ends and D or L forms follow the SMILES beside them. *: point of attachment. C20 diacid = O=C(O)CCCCCCCCCCCCCCCCCCC(=O)*; γGlu = O=C(O)[C@H](CCC(=O)[*:2])N[*:1]
Test: Assay (III) ThT fibrillation assay for physical stability
Type: physicochemical
Conditions: ThT fibrillation assay
Outline: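 Freshly prepared formulations, pH-adjusted, with 1 μM ThT; four or eight replicates incubated at 37 °C under 960 rpm orbital shaking. Fluorescence (ex 444/em 485 nm) read every 20 min; […]. Peptide concentration measured by RP-HPLC before and after the run.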
With `CC[C@H](C)[C@H](NC(=O)[C@@H]1CCCN1C(=O)CNC(=O)[C@H](Cc1ccccc1)NC(=O)[C@H](CC(N)=O)NC(=O)[C@H](CC(N)=O)NC(=O)[C@H](CO)NC(=O)[C@H](CO)NC(=O)[C@H](Cc1c[nH]cn1)NC(=O)[C@H](Cc1c[nH]cn1)NC(=O)[C@H](CC(C)C)NC(=O)[C@H](Cc1ccccc1)NC(=O)[C@H](CCC(=O)O)NC(=O)[C@H](C)NC(=O)[C@H](CC(C)C)NC(=O)[C@H](CCCNC(=N)N)NC(=O)[C@H](CCC(N)=O)NC(=O)[C@@H](NC(=O)[C@H](C)NC(=O)[C@@H]1CSSC[C@H](NC(=O)[C@H](CCCNC(=N)N)NC(=O)CNC(=O)CC[C@H](NC(=O)CCCCCCCCCCCCCCCCCCC(=O)O)C(=O)O)C(=O)N[C@@H](CC(N)=O)C(=O)N[C@@H]([C@@H](C)O)C(=O)N[C@@H](C)C(=O)N[C@@H]([C@@H](C)O)C(=O)N1)[C@@H](C)O)C(=O)N[C@@H](CC(C)C)C(=O)N1CCC[C@H]1C(=O)N1CCC[C@H]1C(=O)N[C@H](C(=O)N[C@@H](CC(N)=O)C(=O)N[C@H](C(=O)NCC(=O)N[C@@H](CO)C(=O)N[C@@H](CC(N)=O)C(=O)N[C@H](C(=O)N1CCC[C@H]1C(N)=O)[C@@H](C)O)C(C)C)[C@@H](C)O` [Example 101, N-alpha-[(S)-4-Carboxy-4-(19-carboxynonadecanoylamino)butyryl]-Gly-[Arg1,Glu14,His17,Pro37]-pramlintide] ({C20 diacid-γGlu}-GRCNTATCATQRLAEFLHHSSNNFGPILPPTNVGSNTP-NH2; disulfide 3-8 (inferred)) the “ThT pH 4.0 recovery” value was 98% and the “ThT pH 4.0 recovery (%)” value was 98%.
In the case of `CC[C@H](C)[C@H](NC(=O)[C@@H]1CCCN1C(=O)CNC(=O)[C@H](Cc1ccccc1)NC(=O)[C@H](CC(N)=O)NC(=O)[C@H](CO)NC(=O)[C@H](CO)NC(=O)[C@H](CO)NC(=O)[C@H](Cc1c[nH]cn1)NC(=O)[C@H](CCCNC(=N)N)NC(=O)[C@H](CC(C)C)NC(=O)[C@H](Cc1ccccc1)NC(=O)[C@H](CCC(=O)O)NC(=O)[C@H](C)NC(=O)[C@H](CC(C)C)NC(=O)[C@H](CCCNC(=N)N)NC(=O)[C@H](CCC(N)=O)NC(=O)[C@@H](NC(=O)[C@H](C)NC(=O)[C@@H]1CSSC[C@H](NC(=O)[C@H](Cc2c[nH]cn2)NC(=O)CC[C@H](NC(=O)CCCCCCCCCCCCCCCCCCC(=O)O)C(=O)O)C(=O)N[C@@H](CC(N)=O)C(=O)N[C@@H]([C@@H](C)O)C(=O)N[C@@H](C)C(=O)N[C@@H]([C@@H](C)O)C(=O)N1)[C@@H](C)O)C(=O)N[C@@H](CC(C)C)C(=O)N[C@@H](CO)C(=O)N[C@@H](CO)C(=O)N[C@H](C(=O)N[C@@H](CC(N)=O)C(=O)N[C@H](C(=O)NCC(=O)N[C@@H](CO)C(=O)N[C@@H](Cc1c[nH]cn1)C(=O)N[C@H](C(=O)N[C@@H](Cc1ccc(O)cc1)C(N)=O)[C@@H](C)O)C(C)C)[C@@H](C)O` [Example 111, N-alpha-[(S)-4-Carboxy-4-(19-carboxynonadecanoylamino)butyryl]-[His1,Glu14,Arg17,Ser21,Ser28,Ser29,His35]-pramlintide] ({C20 diacid-γGlu}-HCNTATCATQRLAEFLRHSSSNFGPILSSTNVGSHTY-NH2; disulfide 2-7 (inferred)), the “ThT pH 4.0 recovery” value is reported as 4% and the “ThT pH 4.0 recovery (%)” value is reported as 4%.
With `CC[C@H](C)[C@H](NC(=O)[C@@H]1CCCN1C(=O)CNC(=O)[C@H](Cc1ccccc1)NC(=O)[C@H](CC(N)=O)NC(=O)[C@H](CC(N)=O)NC(=O)[C@H](CO)NC(=O)[C@H](CO)NC(=O)[C@H](Cc1c[nH]cn1)NC(=O)[C@H](Cc1c[nH]cn1)NC(=O)[C@H](CC(C)C)NC(=O)[C@H](Cc1ccccc1)NC(=O)[C@H](CCC(=O)O)NC(=O)[C@H](C)NC(=O)[C@H](CC(C)C)NC(=O)[C@H](CCCNC(=N)N)NC(=O)[C@H](CCC(N)=O)NC(=O)[C@@H](NC(=O)[C@H](C)NC(=O)[C@@H]1CSSC[C@H](NC(=O)[C@H](CO)NC(=O)CC[C@H](NC(=O)CCCCCCCCCCCCCCCCCCC(=O)O)C(=O)O)C(=O)N[C@@H](CC(N)=O)C(=O)N[C@@H]([C@@H](C)O)C(=O)N[C@@H](C)C(=O)N[C@@H]([C@@H](C)O)C(=O)N1)[C@@H](C)O)C(=O)N[C@@H](CC(C)C)C(=O)N1CCC[C@H]1C(=O)N1CCC[C@H]1C(=O)N[C@H](C(=O)N[C@@H](CC(N)=O)C(=O)N[C@H](C(=O)NCC(=O)N[C@@H](CO)C(=O)N[C@@H](CC(N)=O)C(=O)N[C@H](C(=O)N1CCC[C@H]1C(N)=O)[C@@H](C)O)C(C)C)[C@@H](C)O` [Example 106, N-alpha-[(S)-4-Carboxy-4-(19-carboxynonadecanoylamino)butyryl]-[Ser1,Glu14,His17,Pro37]-pramlintide] ({C20 diacid-γGlu}-SCNTATCATQRLAEFLHHSSNNFGPILPPTNVGSNTP-NH2; disulfide 2-7 (inferred); C-terminus assumed) the “ThT pH 4.0 recovery (%)” value was 2%.
With `CC[C@H](C)[C@H](NC(=O)[C@@H]1CCCN1C(=O)CNC(=O)[C@H](Cc1ccccc1)NC(=O)[C@H](CC(N)=O)NC(=O)[C@H](CC(N)=O)NC(=O)[C@H](CO)NC(=O)[C@H](CO)NC(=O)[C@H](Cc1c[nH]cn1)NC(=O)[C@H](Cc1c[nH]cn1)NC(=O)[C@H](CC(C)C)NC(=O)[C@H](Cc1ccccc1)NC(=O)[C@H](CCC(=O)O)NC(=O)[C@H](C)NC(=O)[C@H](CC(C)C)NC(=O)[C@H](CCCNC(=N)N)NC(=O)[C@H](CCC(N)=O)NC(=O)[C@@H](NC(=O)[C@H](C)NC(=O)[C@@H]1CSSC[C@H](NC(=O)[C@H](Cc2c[nH]cn2)NC(=O)[C@H](Cc2c[nH]cn2)NC(=O)[C@H](Cc2c[nH]cn2)NC(=O)CC[C@H](NC(=O)CCCCCCCCCCCCCCCCCCC(=O)O)C(=O)O)C(=O)N[C@@H](CC(N)=O)C(=O)N[C@@H]([C@@H](C)O)C(=O)N[C@@H](C)C(=O)N[C@@H]([C@@H](C)O)C(=O)N1)[C@@H](C)O)C(=O)N[C@@H](CC(C)C)C(=O)N1CCC[C@H]1C(=O)N[C@@H](Cc1c[nH]cn1)C(=O)N[C@H](C(=O)N[C@@H](CC(N)=O)C(=O)N[C@H](C(=O)NCC(=O)N[C@@H](CO)C(=O)N[C@@H](CC(N)=O)C(=O)N[C@H](C(=O)N[C@@H](Cc1ccc(O)cc1)C(N)=O)[C@@H](C)O)C(C)C)[C@@H](C)O` [Example 36, N-alpha-[(S)-4-Carboxy-4-(19-carboxynonadecanoylamino)butyryl]-His-His-[His1,Glu14,His17,His29]-pramlintide] ({C20 diacid-γGlu}-HHHCNTATCATQRLAEFLHHSSNNFGPILPHTNVGSNTY-NH2; disulfide 4-9 (inferred)) the “ThT pH 4.0 recovery (%)” value was 18%.
In the case of `CC(C)C[C@H](NC(=O)[C@H](CCCNC(=N)N)NC(=O)[C@H](CCC(N)=O)NC(=O)[C@@H](NC(=O)[C@H](C)NC(=O)[C@@H]1CSSC[C@H](NC(=O)[C@H](Cc2c[nH]cn2)NC(=O)CC[C@H](NC(=O)CCCCCCCCCCCCCCCCCCC(=O)O)C(=O)O)C(=O)N[C@@H](CC(N)=O)C(=O)N[C@@H]([C@@H](C)O)C(=O)N[C@@H](C)C(=O)N[C@@H]([C@@H](C)O)C(=O)N1)[C@@H](C)O)C(=O)N[C@@H](C)C(=O)N[C@@H](CCC(=O)O)C(=O)N[C@@H](Cc1ccccc1)C(=O)N[C@@H](CC(C)C)C(=O)N[C@@H](Cc1c[nH]cn1)C(=O)N[C@@H](CCCNC(=N)N)C(=O)N[C@@H](CO)C(=O)N[C@@H](CO)C(=O)N[C@@H](CC(N)=O)C(=O)N[C@@H](CC(N)=O)C(=O)N[C@@H](Cc1ccccc1)C(=O)NCC(=O)N[C@@H](C)C(=O)N1CCC[C@H]1C(=O)N[C@@H](CC(C)C)C(=O)N[C@@H](CO)C(=O)N[C@@H](CO)C(=O)N[C@H](C(=O)N[C@@H](CC(N)=O)C(=O)N[C@H](C(=O)NCC(=O)N[C@@H](CO)C(=O)N[C@@H](CC(N)=O)C(=O)N[C@H](C(=O)N[C@@H](Cc1ccc(O)cc1)C(N)=O)[C@@H](C)O)C(C)C)[C@@H](C)O` [Example 6, N-alpha-[(S)-4-Carboxy-4-(19-carboxynonadecanoylamino)butyryl]-[His1,Glu14,His17,Arg18,Ala25,Pro26,Ser28,Ser29]-pramlintide] ({C20 diacid-γGlu}-HCNTATCATQRLAEFLHRSSNNFGAPLSSTNVGSNTY-NH2; disulfide 2-7 (inferred)), the “ThT pH 4.0 recovery (%)” value is reported as 0%.
With `CC[C@H](C)[C@H](NC(=O)[C@@H]1CCCN1C(=O)CNC(=O)[C@H](Cc1ccccc1)NC(=O)[C@H](CC(N)=O)NC(=O)[C@H](CC(N)=O)NC(=O)[C@H](CO)NC(=O)[C@H](CO)NC(=O)[C@H](Cc1c[nH]cn1)NC(=O)[C@H](CCCNC(=N)N)NC(=O)[C@H](CC(C)C)NC(=O)[C@H](Cc1ccccc1)NC(=O)[C@H](CCC(=O)O)NC(=O)[C@H](C)NC(=O)[C@H](CC(C)C)NC(=O)[C@H](CCCNC(=N)N)NC(=O)[C@H](CCC(N)=O)NC(=O)[C@@H](NC(=O)[C@H](C)NC(=O)[C@@H]1CSSC[C@H](NC(=O)[C@H](CCC(=O)O)NC(=O)[C@H](CCCNC(=N)N)NC(=O)[C@H](CCC(=O)O)NC(=O)CC[C@H](NC(=O)CCCCCCCCCCCCCCCCCCC(=O)O)C(=O)O)C(=O)N[C@@H](CC(N)=O)C(=O)N[C@@H]([C@@H](C)O)C(=O)N[C@@H](C)C(=O)N[C@@H]([C@@H](C)O)C(=O)N1)[C@@H](C)O)C(=O)N[C@@H](CC(C)C)C(=O)N1CCC[C@H]1C(=O)N1CCC[C@H]1C(=O)N[C@H](C(=O)N[C@@H](CC(N)=O)C(=O)N[C@H](C(=O)NCC(=O)N[C@@H](CO)C(=O)N[C@@H](CC(N)=O)C(=O)N[C@H](C(=O)N1CCC[C@H]1C(N)=O)[C@@H](C)O)C(C)C)[C@@H](C)O` [Example 124, N-alpha-[(S)-4-Carboxy-4-(19-carboxynonadecanoylamino)butyryl]-Glu-Arg-[Glu1,Glu14,Arg17,Pro37]-pramlintide] ({C20 diacid-γGlu}-ERECNTATCATQRLAEFLRHSSNNFGPILPPTNVGSNTP-NH2; disulfide 4-9 (inferred)) the “ThT pH 4.0 recovery” value was 9.3% and the “ThT pH 4.0 recovery (%)” value was 9.3%.
